Measured values published in the supplement of paper PMC9135407.
Where “and” joins values, the source holds several entries; their conditions need not be identical. Identical values can stand only once. Counter-ions that a name gives are not always drawn. The campaign covered roughly 5,800 compounds. About 620 (11%) showed activity.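 Rule for the calls: active = score above a cut-off or among the top three wells of a plate; in these data no inactive exceeds 0.85.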 This is a selection; strong and weak results do not stand in their true shares.

System: primary human hepatic stellate cells (donor 1)
Assay: scaled lipid accumulation score (0 = DMSO-like, 1 = nortriptyline-like); higher = stronger HSC inactivation (lipid re-accumulation), active = hit call of the paper
Conditions: 48 h
[1] = library stock concentration: 3.33 mM
[2] = library stock concentration: 10 mM
[3] = library stock concentration: 1 mM
[4] = library stock concentration: 6.3 mM

CC(C)NCC(O)c1ccc(O)c(O)c1 (racemic) [Isoproterenol HCl (rac)]
scaled lipid accumulation score (library stock concentration: 9.5 mM): inactive: ≤ -0.006

COc1cc(F)c(C(C)C)cc1-c1ccc(C(F)(F)F)cc1CN1C(=O)O[C@H](c2cc(C(F)(F)F)cc(C(F)(F)F)c2)[C@@H]1C [Anacetrapib (MK-0859)]
scaled lipid accumulation score [1]: inactive: ≤ 0
scaled lipid accumulation score [2]: inactive: ≤ 0

CO[C@H]1/C=C/O[C@@]2(C)Oc3c(C)c(O)c4c(O)c(c(/C=N/N5CCN(C)CC5)c(O)c4c3C2=O)NC(=O)/C(C)=C\C=C\[C@H](C)[C@H](O)[C@@H](C)[C@@H](O)[C@@H](C)[C@H](OC(C)=O)[C@@H]1C
scaled lipid accumulation score [2]: inactive: 0.008

CO[C@H]1/C=C/O[C@@]2(C)Oc3c(C)c(O)c4c(O)c(c(/C=N/N5CCN(C)CC5)c(O)c4c3C2=O)NC(=O)/C(C)=C\C=C\[C@H](C)[C@H](O)[C@@H](C)[C@@H](O)[C@@H](C)[C@H](OC(C)=O)[C@@H]1C [Rifampin]
scaled lipid accumulation score [1]: inactive: ≤ 0
scaled lipid accumulation score [2]: inactive: ≤ 0

CO[C@H]1/C=C/O[C@@]2(C)Oc3c(C)c(O)c4c(O)c(c(/C=N/N5CCN(C)CC5)c(O)c4c3C2=O)NC(=O)/C(C)=C\C=C\[C@H](C)[C@H](O)[C@@H](C)[C@@H](O)[C@@H](C)[C@H](OC(C)=O)[C@@H]1C [Rifampicin]
scaled lipid accumulation score: inactive: ≤ 0

CNCCC=C1c2ccccc2CCc2ccccc21.Cl
scaled lipid accumulation score [2]: active: 1.02

CC(Oc1ccc(O)cc1)(P(=O)(O)O)P(=O)(O)O
scaled lipid accumulation score [2]: inactive: ≤ 0

CCC(C)[C@H](NC(=O)[C@H](CCCCN)NC(=O)[C@H](CCCCN)NC(=O)[C@H](C)NC(=O)[C@H](CC(C)C)NC(=O)[C@H](C)NC(=O)[C@H](C)NC(=O)[C@H](CC(C)C)NC(=O)[C@H](C)NC(=O)[C@H](CCCCN)NC(=O)[C@H](CC(C)C)NC(=O)[C@H](CC(N)=O)NC(=O)[C@@H](N)[C@@H](C)CC)C(=O)N[C@@H](CC(C)C)C(N)=O (some centres undefined) [Mastoparan]
scaled lipid accumulation score (library stock concentration: 3 mM): inactive: ≤ -0.012

C=C1C[C@@H](O)[C@H](/C=C/[C@@H](O)C(C)(C)CCCC)[C@H]1C/C=C\CCCC(=O)O [9-deoxy-9-methylene-16,16-dimethyl Prostaglandin E2]
scaled lipid accumulation score [3]: inactive: ≤ 0

CNc1cc2c(Nc3cccc(Br)c3)ncnc2cn1
scaled lipid accumulation score [1]: inactive: ≤ 0
scaled lipid accumulation score [2]: inactive: 0.082

O=C1NC(=O)C(c2ccccc2[N+](=O)[O-])=C1Nc1ccc(O)c(Cl)c1
scaled lipid accumulation score [1]: inactive: 0.054
scaled lipid accumulation score [2]: inactive: 0.057 and inactive: 0.262 and inactive: 0.035

O=C1NC(=O)/C(=C/c2ccc3nccc(-c4ccncc4)c3c2)S1
scaled lipid accumulation score (library stock concentration: 80 uM): inactive: ≤ -0.009
scaled lipid accumulation score (library stock concentration: 400 uM): inactive: ≤ -0.009
scaled lipid accumulation score (library stock concentration: 2 mM): inactive: ≤ -0.009
scaled lipid accumulation score [1]: inactive: 0.048
scaled lipid accumulation score [2]: inactive: ≤ 0 and inactive: ≤ -0.001

CCCc1ncc(C[n+]2ccccc2C)c(N)n1 [Amprolium HCl]
scaled lipid accumulation score [1]: inactive: ≤ 0
scaled lipid accumulation score [2]: inactive: ≤ -0.001

CCCc1ncc(C[n+]2ccccc2C)c(N)n1 [Amprolium hydrochloride]
scaled lipid accumulation score: inactive: ≤ 0

CCCc1ncc(C[n+]2ccccc2C)c(N)n1 [Amprolium]
scaled lipid accumulation score [4]: inactive: 0.006
scaled lipid accumulation score [2]: inactive: ≤ 0

CN1Cc2c(C(=O)OC(C)(C)C)ncn2-c2ccsc2C1=O
scaled lipid accumulation score [2]: inactive: 0.05

O=P(O)(O)OC1C(O)C(OP(=O)(O)O)C(O)C(OP(=O)(O)O)C1O [D-myo-Inositol-1,3,5-triphosphate (sodium salt)]
scaled lipid accumulation score [3]: inactive: 0.025

CCCCCCCCCCCCCCCCC/C=C/C(=O)O [.DELTA.2-trans Eicosenoic Acid]
scaled lipid accumulation score [3]: inactive: ≤ 0

N#C/C(=C\c1ccc(O)c(O)c1)C(=O)Nc1ccccc1 [Tyrphostin AG 494]
scaled lipid accumulation score [2]: inactive: ≤ 0

N#C/C(=C\c1ccc(O)c(O)c1)C(=O)Nc1ccccc1
scaled lipid accumulation score [2]: inactive: 0.037

CC(C(=O)O)c1cccc(Oc2ccccc2)c1 (centres undefined) [Fenoprofen calcium salt dihydrate]
scaled lipid accumulation score: inactive: ≤ 0

CC(C(=O)O)c1cccc(Oc2ccccc2)c1 (centres undefined) [Fenoprofen Calcium]
scaled lipid accumulation score [1]: inactive: ≤ 0
scaled lipid accumulation score [2]: inactive: ≤ 0

CC(C(=O)O)c1cccc(Oc2ccccc2)c1 (centres undefined) [Fenoprofen]
scaled lipid accumulation score (library stock concentration: 8.3 mM): inactive: ≤ 0
scaled lipid accumulation score [2]: inactive: ≤ 0

O=C(O)CN(CCN(CC(=O)O)CC(=O)O)CC(=O)O.[Na+].[Na+].[Na+] [Trisodium ethylenediamine tetracetate]
scaled lipid accumulation score [2]: inactive: ≤ 0

Oc1ccc(C2CNCCc3c2cc(O)c(O)c3Cl)cc1 (centres undefined) [Fenoldopam bromide]
scaled lipid accumulation score [2]: inactive: ≤ -0.07

Oc1ccc(C2CNCCc3c2cc(O)c(O)c3Cl)cc1 (centres undefined)
scaled lipid accumulation score [2]: inactive: ≤ 0

Oc1ccc(C2CNCCc3c2cc(O)c(O)c3Cl)cc1 (centres undefined) [Fenoldopam hydrochloride]
scaled lipid accumulation score [2]: inactive: ≤ -0.006

CC(=O)N[C@@H](Cc1c[nH]c2ccccc12)C(=O)O [Acetyltryptophan]
scaled lipid accumulation score [2]: inactive: ≤ 0

CN(C)CCCNC(=O)[C@@H]1C[C@H](CN2CCOCC2)CN(Cc2ccc3ccccc3c2)C1
scaled lipid accumulation score [2]: active: 0.993

O=C1OC(c2ccc(O)cc2)(c2ccc(O)cc2)c2ccccc21 [Phenolphthalein]
scaled lipid accumulation score [4]: inactive: ≤ -0.001
scaled lipid accumulation score [2]: inactive: ≤ 0

COc1cc(C)c(Sc2cnc(NC(=O)c3ccc(CNC(C)C(C)C)cc3)s2)cc1C(=O)N1CCN(C(C)=O)CC1 (centres undefined)
scaled lipid accumulation score [2]: active: 0.891

COCCOc1nc(-c2ccc(Cl)c(Cl)c2)n(-c2ccc(NC(=O)CCl)cc2)n1 [MI-2 (MALT1 inhibitor)]
scaled lipid accumulation score [1]: inactive: 0.584
scaled lipid accumulation score [2]: inactive: 0.62

OC[C@@H](O)[C@@H](O)[C@H](O)[C@H](O)CO [D-Mannitol]
scaled lipid accumulation score [1]: inactive: 0.012
scaled lipid accumulation score [2]: inactive: ≤ 0

OC[C@@H](O)[C@@H](O)[C@H](O)[C@H](O)CO [Mannitol]
scaled lipid accumulation score (library stock concentration: 11 mM): inactive: ≤ 0
